Experimental data published in patent US20220331391A1 (priority 2021, published 2022).

C[C@@H]([C@H](N)C(=O)N[C@H](C(=O)O)[C@H]1O[C@@H](n2ccc(=O)[nH]c2=O)[C@H](O)[C@@H]1O)[C@H](O)c1ccc(O)cn1 [nikZ, Nikkomycin Z]
Stability in drinking water (drinking water): stable
Degradation of refrigerated solution of nikZ (refrigerated solution used for treating the mice, time period of months): minimal degradation
